Laboratory results: PubChem BioAssay AID504937 (National Center for Advancing Translational Sciences (NCATS), 2011)
Out of some 340,000 compounds screened, about 20 (0.006%) were called active. Inconclusive results, whose numbers are uncertain, are shown with a selection of clear calls. The call rests on the fitted dose curve; in most records, active means well fitted inhibition curve with a large enough effect; inconclusive means small, poorly fitted or top-dose-only effect; inactive means no such curve, though single readings can be large or run the other way. A potency beside an inconclusive call is a rough fit, not a confirmed value.
Potency means the concentration at half of the fitted maximal effect; tags describe the fitted curve by direction and shape.

What follows are molecules tested against Sphingomyelin phosphodiesterase (Homo sapiens) (UniProt P17405) (assay: Inhibitors of Secretory Acid Sphingomyelinase (S-ASM): qHTS). Conditions: placental ASM, HMU-PC fluorogenic substrate (series up to 57.5 µM), 60 min; activity change, negative = inhibition: at the top concentration.
UniProt P17405, sequence (P17405 whole entry, looked up): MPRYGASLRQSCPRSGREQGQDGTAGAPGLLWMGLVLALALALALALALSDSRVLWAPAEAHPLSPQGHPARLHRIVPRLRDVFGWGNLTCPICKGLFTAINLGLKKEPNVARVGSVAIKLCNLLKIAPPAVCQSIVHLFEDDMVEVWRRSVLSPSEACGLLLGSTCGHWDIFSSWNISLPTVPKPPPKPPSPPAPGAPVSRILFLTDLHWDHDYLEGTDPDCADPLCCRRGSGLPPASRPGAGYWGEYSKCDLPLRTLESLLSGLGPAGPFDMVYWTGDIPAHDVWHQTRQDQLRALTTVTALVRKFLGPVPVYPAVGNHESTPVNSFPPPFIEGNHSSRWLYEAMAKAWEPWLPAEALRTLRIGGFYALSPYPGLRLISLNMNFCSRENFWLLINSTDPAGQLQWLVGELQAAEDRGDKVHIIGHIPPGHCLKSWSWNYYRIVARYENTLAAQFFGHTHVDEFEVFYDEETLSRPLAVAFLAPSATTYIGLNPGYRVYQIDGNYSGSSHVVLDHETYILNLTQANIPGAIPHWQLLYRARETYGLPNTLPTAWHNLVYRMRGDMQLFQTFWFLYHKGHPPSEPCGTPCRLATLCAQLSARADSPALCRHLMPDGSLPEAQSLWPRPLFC
Summary of the method: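 Human placenta-derived ASM preincubated with compound 10 min at room temperature, then reacted with 9 uM (final) fluorogenic HMU-PC substrate for 60 min at 37 C. Stop solution raises pH to 10; fluorescence read at Ex 386/Em 447 nm.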
For `Cc1cccc2[nH]c3c(N4CC=C(c5ccc(F)cc5)CC4)ncnc3c12`, the Potency was inconclusive: 79.4 µM [inhibitor, single point]. For `CC1CCN(CCNC(=O)c2ccc3c(=O)n(Cc4ccc(Cl)cc4)c(=S)[nH]c3c2)CC1`, the Potency was inconclusive: 89.1 µM [inhibitor, single point]. For `Nc1cc(-c2ccc(OC(F)(F)F)cc2)nn1-c1ccc(Cl)c(Cl)c1`, the Potency was inconclusive: 89.1 µM [inhibitor, single point]. With `CC1=C(/C=C/C(C)=C/C=C/C(C)=C/C(=O)Nc2ccc(O)cc2)C(C)(C)CCC1` the Potency was inconclusive: 100 µM [inhibitor, single point]. In the case of `Nc1[nH]n2c(=O)c3c(nc2c1N=Nc1ccc(Cl)cc1)CCCC3`, the Potency was inconclusive: 562 µM [inhibitor, partial curve, poor fit]. In the case of `CNc1nc(Nc2ccc(C)c(Cl)c2)nc(N)c1[N+](=O)[O-]`, the Potency was inconclusive: 63.1 µM [inhibitor, partial curve, poor fit]. `CCCCOc1ccc(/C=N/NC(=O)c2nnn(-c3nonc3N)c2CN2CCCCCC2)cc1` was tested, and the Potency was inconclusive: 447 µM [inhibitor, partial curve, poor fit]. For `CC1CC(C)CN(C(=O)CNC(=O)c2ccc3ccccc3c2)C1` (centres undefined), the “activity change, negative = inhibition” value was inactive: -0.641%. `Nc1ncnc2c1ncn2[C@@H]1O[C@H](COP(=O)(O)O)[C@@H](O)[C@H]1O` was tested, and the Potency was inconclusive: 44.7 µM [inhibitor, partial curve]. For `c1ccc(CCc2cc3ccccc3[nH]2)cc1`, the “activity change, negative = inhibition” value was inactive: -4.19%. In the case of `O=C(Nc1cccc(NC(=O)c2ccc(-c3cccc(Br)c3)o2)c1)c1ccco1`, the Potency was inconclusive: 251 µM [inhibitor, partial curve, poor fit]. In the case of `CC(/C=C1\SC(=S)N(NC(=O)c2cccc(O)c2)C1=O)=C\c1ccccc1`, the Potency was inconclusive: 79.4 µM [inhibitor, single point]. With `CC(C)c1ccc(NC(=O)C2CCN(S(=O)(=O)c3ccc4c(c3)NC(=O)CO4)CC2)cc1` the Potency was inconclusive: 100 µM [inhibitor, partial curve, poor fit]. `O=C(O)CCCNC(=O)Cc1ccccc1` was tested, and the “activity change, negative = inhibition” value was inactive: 5.18%. For `O=C(COc1ccccc1C(=O)c1cnn(-c2ccccc2)c1)Nc1ccccc1`, the Potency was inconclusive: 224 µM [inhibitor, partial curve, poor fit]. In the case of `O=C(NC1CCCc2ccccc21)c1ccccc1` (centres undefined), the “activity change, negative = inhibition” value was inactive: -2.49%. With `O=C1CN(c2ccc(Cl)cc2)C(=O)CN1NC(=S)Nc1ccc(Cl)cc1` the Potency was inconclusive: 63.1 µM [inhibitor, partial curve, poor fit]. With `CCc1cc(=O)[nH]c(SCCc2ccccc2)n1` the “activity change, negative = inhibition” value was inactive: 0.337%. With `C[C@]12c3[nH]c4cc(-c5ccco5)ccc4c3CCN1C(=O)[C@@H](CC(=O)NCC13CC4CC(CC(C4)C1)C3)C[C@@H]2C(=O)N1CCCCC1` the Potency was inconclusive: 200 µM [inhibitor, partial curve]. In the case of `CCC(=O)N1N=C(c2ccc(C)o2)CC1c1ccc(Br)cc1` (centres undefined), the “activity change, negative = inhibition” value was inactive: 0%. `COC(=O)c1cccc(Nc2cc(C)nc(-c3ccccc3O)n2)c1` was tested, and the “activity change, negative = inhibition” value was inactive: -21.7%. For `O=C(N/N=C/c1ccc(O)cc1)c1cc(-c2ccccc2)nc2ccccc12`, the Potency was inconclusive: 355 µM [inhibitor, partial curve, poor fit]. For `O=C(O)CSc1cc(NS(=O)(=O)c2ccc(Br)cc2)c2ccccc2c1O`, the Potency was inconclusive: 70.8 µM [inhibitor, partial curve, poor fit]. For `O=C(Nc1ccc(N2CCOCC2)cc1N1CCOCC1)c1ncoc1-c1cccc(F)c1`, the Potency was inconclusive: 562 µM [inhibitor, partial curve, poor fit]. With `Cc1cc(C(C)(C)CC(C)(C)C)ccc1OCCOCC[N+](C)(C)Cc1ccccc1` the Potency was inconclusive: 63.1 µM [inhibitor, single point]. With `Cc1ccc(N(CC(O)CON=C2c3ccccc3-c3ccccc32)S(C)(=O)=O)cc1` (centres undefined) the Potency was inconclusive: 398 µM [inhibitor, partial curve, poor fit]. For `Cc1c(NC(=O)CCCN2C(=O)c3cccc4cccc(c34)C2=O)c(=O)n(-c2ccccc2)n1C`, the Potency was inconclusive: 44.7 µM [inhibitor, partial curve, poor fit]. With `CC(C)C[C@H]1CNC(=S)N1CC1CCCN1C[C@H](Cc1ccccc1)N1C[C@H](Cc2ccc(O)cc2)N(CC2CCCCC2)C1=S` (some centres undefined) the Potency was inconclusive: 89.1 µM [inhibitor, single point]. In the case of `CCNS(=O)(=O)c1ccc(NC(=O)Nc2cccc(C(F)(F)F)c2)cc1`, the Potency was inconclusive: 100 µM [inhibitor, partial curve, poor fit]. In the case of `COc1ccc(OCc2nnc3n2N=C(c2ccc(C)cc2)CS3)cc1`, the Potency was inconclusive: 100 µM [inhibitor, partial curve, poor fit]. With `Cc1ccc(Nc2nc(N)c([N+](=O)[O-])c(NCc3ccccc3)n2)cc1` the Potency was inconclusive: 112 µM [inhibitor, partial curve]. In the case of `CC1CCN(C(=O)CN2C(=O)NC(c3ccccc3)(c3ccccc3)C2=O)CC1`, the “activity change, negative = inhibition” value was inactive: 2.86%. For `COc1cc(NC(=O)c2cc(C(C)C)on2)c(OC)cc1Cl`, the “activity change, negative = inhibition” value was inactive: -0.651%. For `O=C1/C(=C/c2ccc(F)cc2)SC(=S)N1CCCC(=O)N1CCCCC1CCO` (centres undefined), the Potency was inconclusive: 89.1 µM [inhibitor, partial curve, poor fit]. For `Cc1cccc(C(=O)NC(=S)NNC(=O)c2ccccc2Cl)c1`, the “activity change, negative = inhibition” value was inactive: -0.851%. In the case of `CC(=O)Nc1ccc(NC(=O)COC(=O)C2CCC(C(C)(C)C)CC2)cc1` (centres undefined), the Potency was inconclusive: 501 µM [inhibitor, partial curve, poor fit]. With `O=C(CCCCC(=O)OCC1CCCO1)OCC1CCCO1` (centres undefined) the “activity change, negative = inhibition” value was inactive: 3.79%. `COc1ccc(C2=Nc3cccc4cccc(c34)N2)cc1` was tested, and the “activity change, negative = inhibition” value was inactive: -1.53%. `COc1cc(CNc2ccc(O)cc2)cc(Br)c1OCc1ccccc1` was tested, and the Potency was inconclusive: 251 µM [inhibitor, partial curve, poor fit]. `COc1cc(/C=N/N2C(=O)c3ccccc3NC2(C)c2cccc([N+](=O)[O-])c2)cc(Br)c1O` (centres undefined) was tested, and the Potency was inconclusive: 200 µM [inhibitor, partial curve, poor fit]. For `O=C(Cn1nnc(-c2ccc3c(c2)OCO3)n1)Nc1ccccc1C(=O)O`, the “activity change, negative = inhibition” value was inactive: 5%. For `c1ccc(C(c2ccccc2)N2CCN(c3nc4ccccc4n4cnnc34)CC2)cc1`, the Potency was inconclusive: 112 µM [inhibitor, partial curve, poor fit]. `COC(=O)c1cc(NC(=O)Cc2coc3cc(OC)ccc23)cc(C(=O)OC)c1` was tested, and the Potency was inconclusive: 112 µM [inhibitor, partial curve, poor fit]. With `Cc1ccsc1/C=N/NC(=O)c1nnn(-c2nonc2N)c1CN(C)c1ccccc1` the Potency was inconclusive: 282 µM [inhibitor, partial curve, poor fit]. `O=C(OC1CCOC1=O)c1cc(-c2ccc(Br)cc2)nc2ccccc12` (centres undefined) was tested, and the “activity change, negative = inhibition” value was inactive: -6.35%. With `CCc1ccc(N2CC(C(=O)Nc3ccc(S(=O)(=O)N4CCOCC4)cc3)CC2=O)cc1` (centres undefined) the Potency was inconclusive: 56.2 µM [inhibitor, partial curve]. In the case of `COC(=O)/C(C#N)=C/c1c(N2CCN(c3ccc(OC)cc3)CC2)nc2c(C)cccn2c1=O`, the Potency was inconclusive: 126 µM [inhibitor, partial curve, poor fit]. In the case of `COc1ccc(/C=N/NC(=O)c2cc(O)c(O)c(O)c2)cc1Cn1cc([N+](=O)[O-])cn1`, the Potency was inconclusive: 112 µM [inhibitor, partial curve, poor fit]. In the case of `COc1ccc(/C=C2\CCC(C3CCCC3)C2=O)cc1Cn1cccn1` (centres undefined), the Potency was inconclusive: 14100 µM [inhibitor, partial curve, poor fit]. `CC(=O)N1CCc2cc(Br)cc(S(=O)(=O)N3CCc4ccccc43)c21` was tested, and the “activity change, negative = inhibition” value was inactive: -7.38%. With `COC(=O)Cn1cnc2c(nnn2-c2cccc(OC)c2)c1=O` the “activity change, negative = inhibition” value was inactive: 2.78%. For `O=C1NC2=C(CCc3ccccc32)C(c2ccc(Br)cc2)N1` (centres undefined), the “activity change, negative = inhibition” value was inactive: 22.8%. `Cc1nn(-c2ccccc2)c(C)c1/C=N/NC(=O)c1cc(-c2ccc(Br)s2)[nH]n1` was tested, and the Potency was inconclusive: 89.1 µM [inhibitor, single point]. In the case of `Clc1cc(Sc2ccc(Br)cc2)nnc1-c1ccccc1`, the Potency was inconclusive: 562 µM [inhibitor, partial curve, poor fit]. In the case of `S=c1nc(C2CC2)[nH]c2ccccc12`, the Potency was inconclusive: 6.31 µM [inhibitor, partial curve, poor fit]. In the case of `COc1ccc(N2CCN(C(=O)c3cc(-c4ccc(F)cc4)[nH]c3C)CC2)cc1`, the Potency was inconclusive: 112 µM [inhibitor, partial curve, poor fit]. `Cc1cc(-n2nnc3ccccc32)nc2ccccc12` was tested, and the “activity change, negative = inhibition” value was inactive: -8.01%. In the case of `COc1cc(C2C(C#N)=C(N)Oc3cc(N(C)C)ccc32)cc2c1OCO2` (centres undefined), the “activity change, negative = inhibition” value was inactive: 0.181%. `CC1(C)Oc2cc3oc(-c4cc(O)cc(O)c4)cc3cc2CC1O` (centres undefined) was tested, and the Potency was inconclusive: 631 µM [inhibitor, partial curve, poor fit]. With `O=C(c1ccc(Cl)cc1)N1CCN(c2ccc([N+](=O)[O-])c(NCc3cccnc3)c2)CC1` the Potency was inconclusive: 89.1 µM [inhibitor, single point]. For `CCS(=O)(=O)c1nc(S(=O)(=O)c2ccc(C)cc2)c(N2CCN(CCO)CC2)s1`, the “activity change, negative = inhibition” value was inactive: -0.744%. `Cn1c(SCC(=O)c2ccc3c(c2)Cc2ccccc2-3)nnc1-c1cccc(N)c1` was tested, and the Potency was inconclusive: 501 µM [inhibitor, partial curve, poor fit]. For `O=C(Nc1nnc(C(F)(F)F)s1)C1COc2ccccc2O1` (centres undefined), the “activity change, negative = inhibition” value was inactive: -0.612%. For `CCOC(=O)c1c2c(n(Cc3ccccc3)c1C)C(=O)C(=O)c1ccccc1-2`, the Potency was inconclusive: 100 µM [inhibitor, partial curve, poor fit].
